Data: PubChem BioAssay AID1458 (National Center for Advancing Translational Sciences (NCATS), 2008)
Several values for one entry are separate records, joined by “and”; a condition that tells them apart may be missing. Equal values may be shown once. The whole screen tested about 210,000 compounds, of which about 5,900 (2.8%) were called active. This list was built around the results that the source calls inconclusive (neither active nor inactive); the mix of calls is not that of the screen. The call rests on the fitted dose curve; in most records, active means well fitted activation curve with a large enough effect; inconclusive means small, poorly fitted or top-dose-only effect; inactive means no such curve, though single readings can be large or run the other way. Potencies beside an inconclusive call are fits to weak or partial responses and may not hold up.

Assay: qHTS Assay for Enhancers of SMN2 Splice Variant Expression; further: nearly all actives have a fitted effect of over 55% in size; on activity change, positive = activation: % of control where 0% means no effect
Conditions: HEK293 SMN2-luciferase splicing reporter, luminescence, 30-36 h; activity change, positive = activation: at 46.1 µM (top of the series)
Procedure, shortened: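 HEK293 cells carry an SMN2 […]–luciferase reporter in which exon 7 inclusion puts luciferase in frame. Cells were plated 10-12 h before compound addition, then incubated 30-36 h at 37C. ONE-Glo luminescence was read; sodium butyrate at 4.5 mM final served as control.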
Potency means the concentration at half of the fitted maximal effect; tags describe the fitted curve by direction and shape.

SMILES | Potency | activity change, positive = activation
COC(=O)Cn1cnc2c1c(=O)n(C)c(=O)n2C | inconclusive: 1.12 µM [activator, partial curve, poor fit] | 
COC1=C(Nc2ccc(C)cc2)C(=O)c2ccccc2C1=O | inconclusive: 17.8 µM [activator, single point] | 
COc1ccc(CSc2nc3ccccc3[nH]2)cc1 | inconclusive: 0.398 µM [activator, full curve, poor fit] | 
CCN(CC)C(=O)CN1C(=O)NC2(CCc3ccccc3C2)C1=O (centres undefined) |  | inactive: 14.2%
O=C(CCS(=O)(=O)c1ccc(Br)cc1)Nc1ccc(Br)cc1F | inconclusive: 0.1 µM [activator, full curve, poor fit] | 
CCOCc1cc(C2NC(=O)NC(C)=C2C(=O)OCC)ccc1OC (centres undefined) | inconclusive: 0.0224 µM [activator, full curve, poor fit] | 
COc1ccc(C(=O)N=c2sccn2C)cc1 | inconclusive: 35.5 µM [activator, single point] | 
COc1cccc(Cn2cc(S(=O)(=O)c3ccc(C)cc3)c(=O)c3cc4c(cc32)OCO4)c1 |  | inactive: 5.06%
O=C(Nc1ccc2c(c1)OCO2)c1ccc2nc[nH]c2c1 | inconclusive: 35.5 µM [activator, single point] | 
CC1(C)CC(=O)C2=C(C1)Nc1nc(SCCN3CCOCC3)[nH]c(=O)c1C2c1cccs1 (centres undefined) |  | inactive: -8.44%
Cc1ccccc1NC(=O)N1CCc2ccccc2C1 | inconclusive: 35.5 µM [activator, single point] | 
CCOc1ccc(S(=O)(=O)NC(C)(C)C)cc1-c1nc2c(C(C)(C)C)nn(C)c2c(=O)[nH]1 |  | inactive: -5.75%
Cc1ccc(S(=O)(=O)Cn2nnnc2C(C(C)C)N2CCN(c3nc4ccccc4s3)CC2)cc1 (centres undefined) |  | inactive: -26.9%
O=C1CN(C(=O)c2ccco2)c2ccccc2N1 | inconclusive: 14.1 µM [activator, single point] | 
CCN1C(=S)SC(=O)C1=C1C=C(C)N(Cc2ccco2)C(C)=C1 | inconclusive: 7.08 µM [activator, full curve] | 
COc1cccc(C(=O)NC2=NC(c3ccc(N(C)C)cc3)CC(=O)N2)c1 (centres undefined) |  | inactive: -5.38%
O=c1cc(-c2ccc(O)cc2)oc2ccc(O)cc12 | inconclusive: 35.5 µM [activator, single point] and inconclusive: 25.1 µM [activator, single point] | 
CN(C)c1ccc(C(c2nnnn2CCOC(=O)Nc2ccc(Cl)cc2)N2CCOCC2)cc1 (centres undefined) | inconclusive: 0.0794 µM [activator, full curve, poor fit] | 
COc1cccc(NC2SC(=O)N(c3ccccc3)C2=O)c1 (centres undefined) | inconclusive: 3.98 µM [activator, single point] | 
CCOC(=O)c1ccc(CC(=O)c2ccc(O)cc2O)o1 |  | inactive: -2.09%
Cn1nnnc1SCC(=O)NCc1ccco1 | inconclusive: 0.282 µM [activator, full curve] | 
Cc1cccn2c(=O)c3cc(C(=O)NCc4ccccc4Cl)sc3nc12 |  | inactive: -3.48%

SMILES | Potency | activity change, positive = activation
Cc1ccc(C(=O)NC2(C(F)(F)F)C(=O)Nc3c2c(=O)[nH]c(=O)n3CCc2ccccc2)cc1 (centres undefined) |  | inactive: -2.19%
COc1ccc(-c2ccc(OC)cc2C(=O)O)cc1 | inconclusive: 4.47 µM [activator, full curve, poor fit] | 
CC(C)(C)c1cc(NC(=O)COC(=O)c2ccc3c(=O)n4c(nc3c2)CCC4)n(-c2ccccc2)n1 | inconclusive: 3.98 µM [activator, partial curve, poor fit] | 
Fc1ccc(F)c(C2=NNC(=NCC3CCCO3)SC2)c1 (centres undefined) | inconclusive: 15.8 µM [activator, single point] | 
CCCCCCCCCCCCCCCCOCC(CO)OC (centres undefined) | inactive | 
Cc1nc(SCC(=O)c2cccs2)c2oc3ccccc3c2n1 | active: 10 µM | 
N/C(=N\OC(=O)c1cccs1)c1ccccc1 | inconclusive: 12.6 µM [activator, partial curve] | 
CC1CCN(c2oc(-c3cccc4ccccc34)nc2C#N)CC1 | active: 11.2 µM | 
Cc1sc(N/N=C/c2cccs2)nc1-c1ccccc1 |  | inactive: -18.8%
COc1nc(Nc2ccc(C(C)C)cc2)nc(OC)n1 | inconclusive: 11.2 µM [activator, partial curve, poor fit] | 
c1ccc2c(-c3nc(-c4ccncc4)no3)cccc2c1 | inconclusive: 12.6 µM [activator, partial curve, poor fit] | 
CC(=O)N1CCc2c(sc3c2c(=O)n(-c2ccc(C)cc2)c(=O)n3CC(=O)Nc2ccccc2)C1 | inconclusive: 11.2 µM [activator, partial curve] | 
N#CC1=C(N)Oc2n[nH]c(CSc3ccccc3)c2C12C(=O)Nc1ccccc12 (centres undefined) | inconclusive: 22.4 µM [activator, partial curve, poor fit] | 
O=C(NCc1ccccn1)Nc1cccc(NC(=O)NCc2ccccn2)c1 | inconclusive: 0.282 µM [activator, full curve, poor fit] | 
CN(C)CCN1C(=O)C(=O)/C(=C(/O)c2ccc(OCc3ccccc3)cc2)C1c1ccncc1 (centres undefined) | inconclusive: 35.5 µM [activator, partial curve, poor fit] | 
Oc1ccccc1/C=C/c1noc(-c2ccccc2O)n1 | inconclusive: 31.6 µM [activator, single point] | 
Cc1cc2c(N=NC(=O)CCc3ccccc3)c(O)[nH]c2cc1Br | inconclusive: 6.31 µM [activator, single point] | 
Cc1cccc(N/C=C/C(=O)c2cccs2)c1C | active: 2 µM | 
COc1ccc(NC(=O)Nc2ncn(Cc3cccc(C(F)(F)F)c3)n2)cc1OC | inconclusive: 0.355 µM [activator, partial curve, poor fit] | 
CC(=O)N=C(N)Sc1nc2ccccc2[nH]1 | active: 12.6 µM | 
C=C(C)Cn1c(=O)c(NC(=O)c2ccccc2)c2n(c1=S)CCC2 | inconclusive: 6.31 µM [activator, single point] | 
O=C(/N=C1\NC(=O)C(F)(C(F)(F)F)S1)NC1CCCCC1 (centres undefined) | inconclusive: 2.24 µM [activator, full curve, poor fit] | 
